Results reported in PubChem BioAssay AID1476 (National Center for Advancing Translational Sciences (NCATS), 2009).
Several values for one entry are separate records, joined by “and”; a condition that tells them apart may be missing. Identical values can stand only once. In all, about 200,000 compounds went through this assay and about 4,500 (2.2%) were called active. The inconclusive results got no clear call from the source; some entries with a clear call stand among them for comparison. Calls come from the whole dose curve; as a rule, active = well fitted inhibition curve with a large enough effect; inconclusive = small, poorly fitted or top-dose-only effect, or effect the other way; inactive = flat fitted curve, though single readings scatter. Where the call is inconclusive, the potency comes from a doubtful curve fit.

biological target: Cruzipain (Trypanosoma cruzi) (UniProt P25779); test: qHTS Assay for Promiscuous and Specific Inhibitors of Cruzain (without detergent); details: purified cruzain, Z-FR-AMC fluorescence, no detergent; note: nearly all actives have a fitted effect of over 40% in size;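 for max response, negative = inhibition: plate controls were enzyme without inhibitor for no effect and buffer without enzyme for full effect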
Outline: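 Detergent-free condition (0.00005% Triton X-100) in acetate buffer pH 5.5 with DTT. 1.5 nM enzyme and compound were pre-mixed 15 min, then 2 uM Z-FR-AMC substrate added; reaction progress from fluorescence change between first and third reads (60 s).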
Potency is the fitted concentration of half-maximal effect; tags give direction and shape of the fitted curve.

UniProt P25779, sequence (P25779 whole entry, looked up): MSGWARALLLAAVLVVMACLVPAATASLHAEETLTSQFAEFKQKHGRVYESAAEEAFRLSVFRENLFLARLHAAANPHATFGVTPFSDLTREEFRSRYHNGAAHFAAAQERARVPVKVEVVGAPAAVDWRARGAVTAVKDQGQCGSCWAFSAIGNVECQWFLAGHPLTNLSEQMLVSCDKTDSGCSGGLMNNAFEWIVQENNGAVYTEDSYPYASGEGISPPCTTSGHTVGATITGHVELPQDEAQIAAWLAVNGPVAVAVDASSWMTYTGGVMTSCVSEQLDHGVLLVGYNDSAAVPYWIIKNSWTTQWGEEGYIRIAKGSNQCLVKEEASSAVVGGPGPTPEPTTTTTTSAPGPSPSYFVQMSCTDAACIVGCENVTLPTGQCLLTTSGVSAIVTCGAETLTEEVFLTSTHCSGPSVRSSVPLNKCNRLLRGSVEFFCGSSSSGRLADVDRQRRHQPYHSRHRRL

| SMILES | max response, negative = inhibition | Potency |
| --- | --- | --- |
| COC(=O)C/C=C/[C@@H](C)[C@H](OC)c1c(Br)ccc2c1OCO2 | inactive: -4.88% | – |
| CCc1ccc(-c2nc3cc(NC(=O)c4ccc(F)cc4)ccc3o2)cc1 | – | inconclusive: 3.98 µM [inhibitor, single point] |
| Cc1cc(/C=C2\NC(=O)N(Cc3ccc(Cl)cc3)C2=O)c(C)n1C | – | inconclusive: 25.1 µM [inhibitor, single point] |
| O=C(Oc1ccccc1)N1CCC[C@@]2(CCN(c3ncccn3)C2)C1 | inactive: 5.58% | – |
| CCOc1cc(C(=O)Nc2c(C)ccc3nsnc23)cc(OCC)c1OCC | – | inconclusive: 31.6 µM [activator, partial curve] |
| Cc1noc(C)c1S(=O)(=O)N1CCC(C(=O)N2CCN(c3ccc(F)cc3)CC2)CC1 | – | inconclusive: 31.6 µM [activator, single point] |
| COc1ccc(NC(=O)Cn2ncc3c4ccccc4n(Cc4ccccc4)c3c2=O)cc1OC | inactive: 3.8% | – |
| COc1ccccc1CSc1nc2n(n1)C(c1ccccc1)C(C(=O)Nc1ccc(C)cc1)=C(C)N2 (centres undefined) | – | inconclusive: 39.8 µM [inhibitor, single point] |
| O=C(Cn1c2c(sc1=O)C1c3ccccc3OCC1CS2)Nc1ccc(Cl)cc1 (centres undefined) | – | inconclusive: 31.6 µM [inhibitor, single point] |
| CCSc1nnc(-c2cccc(S(=O)(=O)N(CC)CC)c2)n1Cc1ccccc1 | – | inconclusive: 39.8 µM [activator, single point] |
| CCN(CC)c1ccc(NC(=O)C2CCCN(S(=O)(=O)c3ccc4c(c3)oc(=O)n4C)C2)c(C)c1 (centres undefined) | inactive: 6.06% | – |
| CCC(O)(CC)C(=O)NN(C(=O)Nc1csc2c1CCCC2)c1ccccc1 | – | inconclusive: 25.1 µM [inhibitor, single point] |
| CCOc1ccccc1C(=O)Nc1cccc(-c2nnc(-c3ccccc3)o2)c1 | – | inconclusive: 31.6 µM [activator, single point] |
| CC1OC(OC2CCC3(C)C(CCC4C3CC(O)C3(C)C(C5=CC(=O)OC5)CCC43O)C2)CC(O)C1OC1CC(O)C(OC2CC(O)C(OC3OC(CO)C(O)C(O)C3O)C(C)O2)C(C)O1 (centres undefined) | – | inconclusive: 14.1 µM [activator, partial curve] |
| CN(C)N1C(N)=C(C#N)C(c2cccc3ccccc23)C2=C1CC(c1ccccc1)CC2=O (centres undefined) | – | inconclusive: 31.6 µM [inhibitor, single point] |
| Cn1c(=O)c2c(nc(CN3CCN(C(=O)c4ccco4)CC3)n2Cc2ccc(F)cc2)n(C)c1=O | – | inconclusive: 31.6 µM [activator, single point] |
| CC(=O)C1(C)CC2(CC(C)(C)OC2=O)C(=O)O1 (centres undefined) | inactive: -1.59% | – |
| COc1ccccc1CN(Cc1cc2cc3c(cc2[nH]c1=O)OCCO3)Cc1nnnn1Cc1ccco1 | – | inconclusive: 39.8 µM [activator, single point] |
| Cc1cccc(CCNC(=O)CCc2c(C)nc3c(-c4ccc(F)cc4)c(C)nn3c2C)c1 | inactive: 15.2% | – |
| CC(=O)Oc1ccc2c(C)c(CC(C)O)c(=O)oc2c1 (centres undefined) | – | inconclusive: 12.6 µM [inhibitor, single point] |
| N#Cc1c(/N=C/c2cc3ccccc3s2)sc2c1CCC2 | – | active: 12.6 µM |
| O=C(N/N=C/c1ccco1)c1cc(-c2cccc(Br)c2)nc2ccccc12 | – | inconclusive: 25.1 µM [inhibitor, single point] |

| SMILES | max response, negative = inhibition | Potency |
| --- | --- | --- |
| O=C(Nc1ncc(Cc2cccc(Cl)c2)s1)c1ccc([N+](=O)[O-])cc1 | – | inconclusive: 39.8 µM [inhibitor, single point] |
| CCc1ccc(NS(=O)(=O)c2ccc3[nH]cc(C(=O)NCCc4ccccc4)c(=O)c3c2)cc1 | – | active: 7.94 µM |
| CCOC(=O)CC(NC(=O)c1cc2cc(Cl)cc(Cl)c2oc1=O)c1cccc([N+](=O)[O-])c1 (centres undefined) | – | inconclusive: 31.6 µM [inhibitor, single point] |
| CC1CCCN(c2ccc(C(=O)Nc3nnc(C4CC4)s3)cc2[N+](=O)[O-])C1 (centres undefined) | – | inconclusive: 39.8 µM [inhibitor, single point] |
| CC(=O)Nc1cccc(C(=O)OC(C(=O)c2ccc(C)c(C)c2)c2ccccc2)c1 (centres undefined) | – | inconclusive: 39.8 µM [activator, single point] |
| COc1ccc(N2CC(c3nc(-c4ccccc4C)no3)CC2=O)cc1Cl (centres undefined) | – | inconclusive: 25.1 µM [activator, single point] |
| CC(C)CCn1nnnc1C(C(C)C)N1CCC(C(N)=O)CC1 (centres undefined) | inactive: 2.38% | – |
| CC1=Nn2c(nc3sc4c(c3c2=O)CCCC4)SC1 | – | inconclusive: 39.8 µM [activator, single point] |
| Cc1c(NC(=O)C2(c3ccc(Cl)cc3)CCCC2)c(=O)n(-c2ccccc2)n1C | inactive: 13.3% | – |
| CCN(CC)CCCNC(=O)c1ccc2c(c1)NC(=O)C(CS(=O)(=O)Cc1ccc(F)cc1Cl)N2 (centres undefined) | – | inconclusive: 39.8 µM [activator, single point] |
| COC(=O)[C@@]1(Cc2ccccc2)[C@H]2c3cc(C(=O)N4CCCC4)n(C)c3C[C@H]2CN1C(=O)c1ccccc1 | – | inconclusive: 31.6 µM [activator, single point] |
| COc1ccc(NS(=O)(=O)c2cc(NC(=O)c3ccc(C)o3)ccc2N2CCCCC2)cc1 | – | inconclusive: 39.8 µM [inhibitor, single point] |
| O=C1NC(=O)C2(Cc3ccccc3N3CCCC32)C(=O)N1c1ccc(Cl)cc1 (centres undefined) | inactive: 4.63% | – |
| C=C1CC[C@H](O)C/C1=C/C=C1\CCC[C@]2(C)[C@@H]([C@H](C)CCCC(C)C)CC[C@@H]12 | – | inconclusive: 25.1 µM [activator, partial curve] and inconclusive: 28.2 µM [activator, partial curve] |
| CCOC(=O)c1c(NC(=O)COc2ccc(OC)cc2)sc(C(=O)N(CC)CC)c1C | – | inconclusive: 39.8 µM [activator, single point] |
| CN1CCN(c2ncc3nc(-c4cccc(C#N)c4)c(=O)n(CCC#N)c3n2)CC1 | – | inconclusive: 25.1 µM [inhibitor, single point] |
| O=C1SC(c2ccccc2)=N/C1=C/c1ccco1 | – | inconclusive: 39.8 µM [inhibitor, single point] |
| COc1ccc(-c2noc(CNC(=O)c3ccc(OC)cc3OC)n2)cc1 | inactive: 4.72% | – |
| CCC1=Nc2cc(C(=O)N3CCC(C)CC3)ccc2Sc2ccc(C)cc21 | inactive: 4.55% | – |
| Cc1ccc(C)c(NC(=O)C2CCCN2S(=O)(=O)c2ccc3c(c2)CCCC(=O)N3)c1 (centres undefined) | inactive: 11.7% | – |
| CCN(CC)c1ccc(/C=c2\sc3nnc(-c4ccccc4Cl)n3c2=O)cc1 | – | active: 12.6 µM |
| COc1ccc(C(=O)NN(c2ccccc2)c2ccccc2)cc1 | – | inconclusive: 20 µM [inhibitor, single point] |

| SMILES | max response, negative = inhibition | Potency |
| --- | --- | --- |
| Cc1ccc(CNC(=O)C(=O)NCC(c2cccs2)S(=O)(=O)c2ccccc2)cc1 (centres undefined) | inactive: -12.9% | – |
| CC(=O)C(N=Nc1ccccc1)(Sc1nnc(-c2ccccc2)n1-c1ccccc1)C(=O)Nc1ccccc1 (centres undefined) | – | active: 25.1 µM |
| CC(C)C(=O)N1CCN(c2ccc([N+](=O)[O-])c(NC(C)c3ccccc3)c2)CC1 (centres undefined) | – | inconclusive: 39.8 µM [activator, single point] |
| Cc1cc(C)n(C(C[N+](=O)[O-])c2ccc(Cl)cc2)n1 (centres undefined) | – | active: 20 µM |
| O=C(NCCc1csc(-c2ccc(C(F)(F)F)cc2)n1)c1ccccc1Cl | – | inconclusive: 39.8 µM [activator, single point] |
| Cc1nc(NC(=O)c2ccco2)sc1-c1csc(Nc2ccc(Cl)cc2Cl)n1 | – | active: 12.6 µM |
| Cn1c(-c2nonc2NC(=O)c2ccc(C(C)(C)C)cc2)nc2ccccc21 | – | inconclusive: 3.98 µM [inhibitor, single point] |
| CCSc1nnc2c(n1)OC=Nc1ccc(Br)cc1-2 | inactive: -15.7% | – |
| Cc1cc(Br)cc(C)c1OCC(=O)Nc1ccc(S(=O)(=O)Nc2ncccn2)cc1 | inactive: -27.6% | – |
| COC(=O)c1ccccc1NC(=O)C1CCCN(C(=O)c2cnn(-c3ccc(F)cc3)c2-n2cccc2)C1 (centres undefined) | inactive: -11% | – |
| C=CCC(Nc1ccccc1)C12C=CC(O1)C(C(=O)OC)=C2C(=O)OC (centres undefined) | – | inconclusive: 39.8 µM [activator, single point] |
| O=C(Nc1cccc(-c2nc3ccccc3s2)c1)c1cc(=O)c2ccccc2o1 | – | inconclusive: 39.8 µM [inhibitor, single point] |
| CC(C)c1ccccc1NC(=O)COC(=O)Cc1ccsc1 | inactive: -2.3% | – |
| Cc1ccc(C)c(N2CCN(c3nc4ccccc4n4nnnc34)CC2)c1 | – | inconclusive: 7.94 µM [inhibitor, single point] |
| O=C(/C=C/c1ccc(O)c(O)c1)OC(Cc1ccc(O)c(O)c1)C(=O)O (centres undefined) | – | inconclusive: 31.6 µM [inhibitor, partial curve, poor fit] |
| CCN1c2ccccc2-c2nc(SCC(=O)Nc3cc(C)c(Cl)cc3OC)ncc2S1(=O)=O | – | active: 25.1 µM |
| Oc1c(C(c2cccc(Cl)c2)N2CCOCC2)sc2nc(-c3ccco3)nn12 (centres undefined) | inactive: 25.4% | – |
| Cc1ccc(S(=O)(=O)C(CNC(=O)C(=O)NCCc2ccc(F)cc2)c2cccs2)cc1 (centres undefined) | inactive: -13.1% | – |
| COc1ccccc1NC(=O)CSc1nnc(CC(=O)Nc2cccc(C(F)(F)F)c2)n1C | – | inconclusive: 31.6 µM [activator, single point] |
| BrC(=C\c1ccccc1)/C=N/Nc1nc(N2CCOCC2)nc(N2CCOCC2)n1 | – | inconclusive: 39.8 µM [activator, single point] |
